Data from publication PMC9911399, “Two distinct binding modes provide the RNA-binding protein RbFox with extraordinary sequence specificity”.
Substitutions are numbered along the chain they refer to; changes in the protein carry UniProt numbers. The list shows a part of the results.

T1: RBFOX1 RRM (Homo sapiens, UniProt Q9NWB1 109-208)
T1 sequence: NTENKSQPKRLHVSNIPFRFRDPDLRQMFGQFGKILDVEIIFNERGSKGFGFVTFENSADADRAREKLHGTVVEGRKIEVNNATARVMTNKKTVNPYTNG

B1: CGUCGCA (DNA:RNA)
RNA: GGGAGACCGGAAUUCAGAUUGUCCCGUCGCAUUAAAUCCCGUCGUAGCCACCA
DNA 1: CAATCTGAATTCCGGTCTCCC
DNA 2: TGGTGGCTACGACGGGATT
B2: GAUCCGU (DNA:RNA)
RNA: B1 RNA with C25G, G26A, G29C, C30G, A31U
DNA 1: CAATCTGAATTCCGGTCTCCC
DNA 2: TGGTGGCTACGACGGGATT
B3: AGCCUAA (DNA:RNA)
RNA: B1 RNA with C25A, U27C, G29U, C30A
DNA 1: CAATCTGAATTCCGGTCTCCC
DNA 2: TGGTGGCTACGACGGGATT
B4: GGCGUGG (DNA:RNA)
RNA: B1 RNA with C25G, U27C, C28G, G29U, C30G, A31G
DNA 1: CAATCTGAATTCCGGTCTCCC
DNA 2: TGGTGGCTACGACGGGATT
B5: AACUCAC (DNA:RNA)
RNA: GGGAGACCGGAAUUCAGAUUGUCCAACUCACUUAAAUCCCGUCGUAGCCACCA
DNA 1: CAATCTGAATTCCGGTCTCCC
DNA 2: TGGTGGCTACGACGGGATT
B6: CAUGUGU (DNA:RNA)
RNA: B1 RNA with G26A, C28G, G29U, C30G, A31U
DNA 1: CAATCTGAATTCCGGTCTCCC
DNA 2: TGGTGGCTACGACGGGATT
B7: CCCCUUC (DNA:RNA)
RNA: B5 RNA with A25C, A26C, U28C, C29U, A30U
DNA 1: CAATCTGAATTCCGGTCTCCC
DNA 2: TGGTGGCTACGACGGGATT
B8: UUUAGGA (DNA:RNA)
RNA: B1 RNA with C25U, G26U, C28A, C30G
DNA 1: CAATCTGAATTCCGGTCTCCC
DNA 2: TGGTGGCTACGACGGGATT
B9: CUGGCCU (DNA:RNA)
RNA: B1 RNA with G26U, U27G, C28G, G29C, A31U
DNA 1: CAATCTGAATTCCGGTCTCCC
DNA 2: TGGTGGCTACGACGGGATT

Molecular target: T1, RBFOX1 RRM
Experiment: EMSA; HiTS-Eq, 1 nM pool, 10 min; buffer printed only for the single-RNA assays: 10 mM Tris pH 7.5, 150 mM NaCl, 3.4 mM EDTA, 0.001% NP-40, 30 C
Settings: tags: His6 N-terminal (pET28a); label: 5' 32P
Procedure, shortened: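 Relative association constants, normalised to the cognate motif, were derived by comparing read counts of each RNA species with those of the control reaction. The RNA sequenced was the free fraction, separated by 8% native PAGE after a 10 min equilibration in 50 µL of 1 nM 5′-radiolabelled RNA (7 randomized nucleotides) with increasing concentrations of purified wild-type or mutant RbFox RRM.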

| Binder | binding signal |
| --- | --- |
| B1 | 0.00976 KA relative to UGCAUGU |
| B2 | 0.0111 KA relative to UGCAUGU |
| B3 | 0.00191 KA relative to UGCAUGU |
| B4 | 0.02 KA relative to UGCAUGU |
| B5 | 0.00215 KA relative to UGCAUGU |
| B6 | 0.0132 KA relative to UGCAUGU |
| B7 | 0.00251 KA relative to UGCAUGU |
| B8 | 0.00404 KA relative to UGCAUGU |
| B9 | 0.0207 KA relative to UGCAUGU |
